# Results taken from the supplement of paper PMC11417369.
# ± gives the standard deviation of the averaged measurements. The list shows a part of the results.
# System: PfAP2-LT AP2 domain (GST-tagged)
# Experiment: gcPBM binding intensity (ln(normalized median fluorescence intensity)); higher = stronger DNA binding
# In short: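 In this array assay, P. falciparum DNA-binding domains with a GST tag, expressed in E. coli, were applied for 1 h to primer-extended double-stranded 36-bp intergenic genomic probes and negative controls on an Agilent 4 × 180k array. Bound protein was visualised with Alexa488 anti-GST antibody at 488 nm. Binding intensity is the highest Masliner-normalised natural-log median intensity across replicate spots of either probe orientation.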
row,Sequence,gcPBM binding intensity (ln)
1,ATATATATATATATATGTACATATTTACATTTTGTA [XGTACX_site3529],9.89 ± 0.36
2,AATAAAGGAGCCTATGAACACACACCGGTACATATA [CACACA_site9352],9.33 ± 0.51
3,TATACACATTCGCGTTGTACAAAAAAAAAAAAAAAG [XGTACX_site2880],8.76 ± 0.52
4,AAGATGAACCTTTACACATGCAACAAAAAATATACA [TGCATGCA_site166],8.81 ± 0.55
5,ATCAACATTATGTTTAGTACTTAGTGAATTGTTAAT [XGTACX_site4913],8.79 ± 0.28
6,TTTTTATGATTATACTTATATAATTTCATGATTGAA [CACACA_negctrl_site228],8.45 ± 0.48
7,AATATTTCTATATGAACATGCAATGTATCTTTTTAT [TGCATGCA_site738],8.7 ± 0.4
8,AATACTTACCAAAATACACACACACCCAAAATATAT [CACACA_site8559],9.85 ± 0.31
9,TTTATTTTATCATTTGCACACGCACCCCCACATAAA [CACACA_site8007],9.52 ± 0.14
10,TTCTAAATTAATAATACACACTTGCTAAAATCATTA [CACACA_site5733],8.5 ± 0.45
11,TTCTTATATTGTACAGTACACACCTTTATAATGTTA [CACACA_site7953],9.15 ± 0.49
12,ATATAAATAACGTGTACACACATATGTATTTATATA [CACACA_site6520],9.12 ± 0.31
13,ATTCTCCATGTTTGATGTACTCATATGACGACGGAG [XGTACX_site4923],8.81 ± 0.33
14,AATTATATTTGAAATACACACATAAAAACCATATAG [CACACA_site7598],9.12 ± 0.28
15,TCAAAAAAGACACACCGTACATACTATTTGGACAGG [XGTACX_site7699],8.97 ± 0.34
16,ATTTTTATTTTATATACACACAATAATACTAGAATA [CACACA_site7810],8.78 ± 0.5
17,AGATATATAAAATATACACACAGTAATATTTATATA [CACACA_site6767],8.89 ± 0.33
18,ATATATATCTACATATGTACATATATACATTACACA [XGTACX_site7210],9.06 ± 0.33
19,ATTTCATATGGTCAACGTACTCATGCATCCCTCCTT [XGTACX_site437],9.05 ± 0.6

row,Sequence,gcPBM binding intensity (ln)
1,TAAATTTTTTTTTTGATGCACTTAGTTATTATATTT,8.68 ± 0.47
2,ATAACAATTATTTATCTACACACTTTTATGTTATTT [CACACA_site7886],9.07 ± 0.48
3,AATGGCAAAATAGGCACACACACATATACAGATATA [CACACA_site4726],9.77 ± 0.42
4,ATATATATATATATATGTACATATAATTTTTTTTTT [XGTACX_site6948],9.56 ± 0.16
5,TTTATATTAATTTGTGTAAATGCATATGATGAGCAT [XGTACX_negctrl_site254],8.52 ± 0.35
6,AAAAATAAAACAATTACACACATAATTTTATTTTTA [CACACA_site928],8.76 ± 0.38
7,TCCAAAATATCCTTCACACACGAACAGTTTCATTTA [CACACA_site5511],8.96 ± 0.49
8,ATTAAGTCTTATATTACACACGACATTGTAATGTAA [CACACA_site528],8.86 ± 0.25
9,ATTCCACTGTTTTAGTGTACTGGTCGTTTTTTTTTT [XGTACX_site1738],9.18 ± 0.45
10,AATTTTTTATACACAAGTACAAACGCGTAGTCACTT [XGTACX_site2458],8.86 ± 0.42
11,TGGACCAAACGACAAAAAAAAAGCAGAAAACAAAAA [GTGCAC_negctrl_site693],8.84 ± 0.53
12,AAATAAAGAATATAAATACACACTTAAATATATATT [CACACA_site4007],8.88 ± 0.47
13,TTTTTAAAAAAAAAAAAATAAAAAAAAAAAAAATAT [XGTACX_negctrl_site7],8.3 ± 0.48
14,ATTTATATATTTATATGTACATATCTATACATATAT [XGTACX_site7580],9.38 ± 0.67
15,GAATTTTTGACGATATAGGAAATAATTATCCTGAAG [XGTACX_negctrl_site61],8.51 ± 0.29
16,CTGTTAATTATATATTGTACAAAAGATATGATTATA [XGTACX_site6927],8.55 ± 0.35
17,ACAAAAAAATAAAATATATATATATATATAATATAT [CACACA_negctrl_site805],8.98 ± 0.43
18,ATAATAAAATAAATCACACATAATATAATGTAATAT [CACACA_site6144],8.98 ± 0.4
19,TATATTTACATTGTAACACACATGAAATATTTATAT [CACACA_site6178],8.86 ± 0.39

row,Sequence,gcPBM binding intensity (ln)
1,ATGTACATTTTTTTCACACATACATTAATTTATGAG [CACACA_site5801],8.8 ± 0.43
2,TATGTTATATTATAAGGATAAATTTTGATTATATAA [TGCATGCA_negctrl_site600],8.19 ± 0.43
3,AGAATAAAAAGGAACACACACACACCCATATATATA [CACACA_site3590],10.1 ± 0.5
4,TAGACTAATCCCAAAAGTACAGAAAAATTATATTAT [XGTACX_site8663],8.65 ± 0.42
5,TAATTTCTTATGTATTGTACATATAATATATGATAT [XGTACX_site4898],8.76 ± 0.46
6,AAAATAAATAGATAAGCACACAAGCATATAGACATA [CACACA_site7958],9.37 ± 0.55
7,AATATATTTATGCTCATGCACTTTTTTTTTTTTTTT [GTGCAC_site9654],8.85 ± 0.61
8,TATCAATATTAAAAAGTGCAAAATAAAATATAAAAT [GTGCAC_site9486],8.97 ± 0.39
9,TATATTATATATTGGGGTACATATATATAAATATAA [XGTACX_site2296],8.55 ± 0.18
10,TTATGTTGTAAATGCACACATACAAATACAGATACA [CACACA_site4876],9.06 ± 0.29
11,GAAAACAAATATGTAGCACACATTCACATAATATAT [CACACA_site8731],9.16 ± 0.45
12,ATAAATATAAAAATTTGTACATATATAGGTATAGGT [XGTACX_site1735],8.96 ± 0.47
13,ATTATAATGGTAAAGTGTACAAATTTTTATTACACC [XGTACX_site5274],8.9 ± 0.38
14,TCTTGTATATACAGTAGTACTAAAAATTATTAAATA [XGTACX_site7896],8.41 ± 0.42
15,ACATACAAGAATTAAACACACACAAAATATAAATTC [CACACA_site8985],9.62 ± 0.48
16,TGTTTTTTGTTCTTTACAAAAAAAAAAAAAAAAAAA [GTGCAC_negctrl_site61],8.21 ± 0.17
17,TTTATTTATTATTAAAGTACTAAATTACATTATTAT [XGTACX_site6624],8.52 ± 0.64
18,TATTTAATTACATGAACACACATTAGATATTTTTAA [CACACA_site7405],8.51 ± 0.4
